The text below walks through data of PubChem BioAssay AID1159614 (National Center for Advancing Translational Sciences (NCATS), 2016).

SMILES strings stand for the structures. Among all 45,000 compounds or so, about 65 (0.1%) were called active. Calls come from the whole dose curve; as a rule, active = well fitted activation curve with a large enough effect; inconclusive = small, poorly fitted or top-dose-only effect; inactive = no such curve, though single readings can be large or run the other way. Some of the results follow.

For this assay, the target named is Galactocerebrosidase (Homo sapiens) (UniProt P54803). The experiment in a line: A Novel Cell-Based Assay to Identify Small Molecules for B -Galactocerebrosidase. Note: 0% is about no effect; nearly all actives have a fitted effect of over 65% in size. The following applies: 145M-Twi-hGALC-G270D cells (Twitcher mouse brain line with human GALC G270D), HMU-beta-Gal fluorescence, 48 h; series mostly up to 57.5 µM; activation: at the top concentration. The method, boiled down: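 Live 145M-Twi cells (Twitcher mouse brain-derived, GALC-null) stably expressing human GALC-G270D, with a wild-type GALC line, were compound-treated. Residual GALC activity was then read as fluorescence from 0.1 mM final HMU-β-gal at pH 5.2; higher signal means activation.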
UniProt P54803, sequence (P54803 whole entry, looked up): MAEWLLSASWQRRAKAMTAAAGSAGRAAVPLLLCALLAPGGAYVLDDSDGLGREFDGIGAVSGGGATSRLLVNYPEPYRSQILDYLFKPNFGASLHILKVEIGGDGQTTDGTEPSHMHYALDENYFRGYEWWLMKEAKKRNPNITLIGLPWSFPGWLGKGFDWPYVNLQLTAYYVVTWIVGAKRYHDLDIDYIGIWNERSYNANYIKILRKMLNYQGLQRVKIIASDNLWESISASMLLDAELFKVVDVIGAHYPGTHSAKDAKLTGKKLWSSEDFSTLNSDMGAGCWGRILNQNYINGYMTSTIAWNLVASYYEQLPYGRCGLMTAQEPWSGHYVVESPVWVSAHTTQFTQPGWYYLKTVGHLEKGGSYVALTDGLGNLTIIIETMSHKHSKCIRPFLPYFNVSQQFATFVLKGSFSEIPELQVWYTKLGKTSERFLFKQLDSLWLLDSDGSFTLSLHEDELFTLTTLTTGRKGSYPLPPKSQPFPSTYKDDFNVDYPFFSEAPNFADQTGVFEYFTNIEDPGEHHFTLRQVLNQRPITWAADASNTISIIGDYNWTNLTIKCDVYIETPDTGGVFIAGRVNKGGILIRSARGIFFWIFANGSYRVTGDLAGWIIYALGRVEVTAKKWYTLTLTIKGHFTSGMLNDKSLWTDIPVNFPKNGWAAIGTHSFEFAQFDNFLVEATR
Turning to `Cc1ccc(OCCn2nnc3sc4c(c3c2=O)CCC(C(C)(C)C)C4)cc1` (stereo not given), the “activation” value is inactive: -0.253%.
In the case of `NS(=O)(=O)c1ccc(CCNc2nc3c(-c4cccc(F)c4)nnn3c3ccc(Cl)cc23)cc1`, the “activation” value was inactive: -13.7%.
For the compound `CCOc1ccccc1NC(=O)Cn1nnc2sc3c(c2c1=O)CCC(C(C)(C)C)C3` (stereo not given), the “activation” value is inactive: -14.7%.
For `COc1ccc(NC(=O)Cn2cc(C(=O)C3CC3)c3ccccc32)cc1`, the “activation” value was inactive: -15.3%.
`CCN1CCN(C(=O)c2ccc3c(c2)N(Cc2cc(C)ccc2C)C(=O)c2ccccc2S3=O)CC1` (stereo not given): the “activation” value was inactive: -10.5%.
Turning to `COC(=O)c1cc(NC(=O)CN(c2ccccc2)S(=O)(=O)N(C)C)ccc1Cl`, the “activation” value is inactive: -6.94%.
Take `Cc1cc(C)c(/C=C/c2onc(C)c2S(=O)(=O)N2CCC(C(=O)NCc3ccco3)CC2)c(C)c1`: the “activation” value is inactive: -10.9%.
Consider `O=C(CN1C(=O)C2(SCC(=O)N2c2cccc(Cl)c2)c2ccccc21)NC1CCCCC1` (stereo not given), for which the “activation” value was inactive: -18.3%.
With `CCOC(=O)c1c(C)[nH]c(C)c1S(=O)(=O)N(C)CC(=O)N1CCN(c2ccccc2OC)CC1` the figure was inactive: 2.06%.
Take `CCOC(=O)N1CCN(C(=O)CN(c2ccc(C)cc2C)S(=O)(=O)c2ccccc2)CC1`: the “activation” value is inactive: 2.54%.
With `O=C(CCCCn1c(=O)[nH]c2ccsc2c1=O)N1CCN(c2cccc(Cl)c2)CC1`, the “activation” value was inactive: -11.9%.
Regarding `CCN(CC)CCCNC(=O)Cn1c(-c2cccs2)cc2cc(Cl)ccc21`, the “activation” value is inactive: -16.6%.
As for `Cc1ccc(CSc2nc3ccc(NC(=O)COc4ccccc4F)cc3s2)cc1`, the “activation” value was inactive: -4.35%.
With `CCOC(=O)c1c(C)oc2c(Cl)cc(NS(=O)(=O)c3ccc(Cl)c(C)c3)cc12`, the “activation” value was inactive: -12.3%.
Consider `CCCCN(CCCC)S(=O)(=O)c1ccc2oc(C(=O)NCc3ccccc3)c(C)c2c1`, for which the “activation” value was inactive: -12.2%.
With `O=C(COCc1cc(-c2ccco2)on1)Nc1ccc(OC(F)(F)F)cc1`, the “activation” value is inactive: -16%.
For `COc1cccc(OC)c1C(=O)Nc1ccc2c(c1)CCCN2S(=O)(=O)c1ccc(C)cc1`, the “activation” value is inactive: -12.3%.
With `Cc1ccc(-c2nc3c(cnn3-c3ccccc3)c(=O)n2-c2ccc(Cl)cc2)cc1` the figure was inactive: -10.9%; with `O=C(CNS(=O)(=O)c1ccc(Br)s1)N1CCN(c2ccccc2F)CC1`, inactive: -13.2%.
With `Cc1nn(CC(=O)N2CCN(c3ccccc3)CC2)c(=O)c2cccn12` the figure was inactive: -11.3%; with `Cc1ccc(-n2ncc3c(NCCC4=CCCCC4)ncnc32)cc1C`, inactive: -7.82%.
On to `Cc1oc(-c2ccc(Cl)cc2)nc1Cn1c(=O)cc(-c2ccccc2)c2c(C)nn(C)c21`, for which the “activation” value was inactive: 14.1%.
As to `Cn1c(C(=O)NCc2cccc(F)c2)cc2cc(S(=O)(=O)N3CCCCC3)ccc21`, the “activation” value was inactive: 5.14%.
Turning to `COc1cccc(-c2nc(C(N)=O)c3c(n2)n(-c2ccc4c(c2)OCO4)c(=O)n3C)c1OC`, the “activation” value is inactive: -4.27%.
With `CSc1nc2c([nH]c3ccccc32)c(=O)n1-c1ccc(F)cc1`, the “activation” value is inactive: -25%.
